This is an account of results in the antibiotic and cytotoxicity screens of Wong et al. (2023).

The list shows a part of the results.

In the assay the test system is HSkMC (human skeletal muscle cells). As to the kind of experiment: cytotoxicity call (relative viability < 0.9). The conditions noted are these: 10 µM.
Consider `O=C(C[C@H]1C[C@H]2c3cc(NS(=O)(=O)c4ccc(F)cc4)ccc3O[C@H]2[C@@H](CO)O1)NCc1ccccn1`, for which the cytotoxicity call is “inactive”.
With `C[C@@H]1CCCCO[C@H](CN(C)C)[C@H](C)CN([C@@H](C)CO)C(=O)c2cc(NC(=O)CCCN(C)C)ccc2O1`, the cytotoxicity call is “inactive”.
`Cc1ccc(S(=O)(=O)N(C)C[C@@H]2Oc3c(NS(C)(=O)=O)cccc3C(=O)N([C@H](C)CO)C[C@@H]2C)cc1`: the cytotoxicity call was “inactive”.
With `C[C@@H]1CN([C@H](C)CO)C(=O)c2cccc(NC(=O)c3ccc(-c4nccs4)cc3)c2O[C@@H]1CN(C)S(=O)(=O)c1ccc(Cl)cc1`, the cytotoxicity call is “inactive”.
Take `C[C@@H]1CCCCO[C@@H](CN(C)C(=O)Cc2ccccc2)[C@H](C)CN([C@H](C)CO)C(=O)c2cc(NS(=O)(=O)c3cccs3)ccc2O1`: the cytotoxicity call was “inactive”.
With `Cl.O=C(COc1ccc(Cl)cc1)N1CCN(Cc2ccc3c(c2)OCO3)CC1`, the cytotoxicity call is “inactive”.
`Clc1ccc(C(c2ccc(Cl)cc2)[n+]2ccn(C[C@@H](OCc3ccc(Cl)cc3Cl)c3ccc(Cl)cc3Cl)c2)cc1`: the cytotoxicity call is “active”.
As for `O=C(C[C@@H]1CC[C@H]2[C@@H](COC[C@H](O)CN2C(=O)c2ccc3c(c2)OCO3)O1)NCCN1CCCC1`, the cytotoxicity call was “inactive”.
`C[C@H](CO)N1C[C@H](C)[C@H](CN(C)C(=O)C2CCOCC2)Oc2ncc(C#CC3(O)CCCC3)cc2C1=O`: the cytotoxicity call was “inactive”.
With `CN1CCN(c2cc3c(cc2F)c(=O)c(C(=O)O)cn3-c2ccc(F)cc2)CC1.Cl` the entry was “inactive”; with `C=CC[C@H](CC(=O)NCCO)C(=O)NC[C@@H](OC(=O)[C@H](CC=C)CC(=O)OC(C)(C)C)c1ccccc1`, “inactive”.
